The other results are listed elsewhere or left out. Most values come without repeats; read them as rough.
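Further: cells treated in 1,536-well plates, then fixed and DAPI-stained, with nuclei counted from automated high-throughput microscope images.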

This assay has as its system LB2518-MEL. The experiment in a line: cell count relative to DMSO control; melanoma cells; higher = more viable cells. The note with it: library dose: standard library concentration; 72 h.
The molecule `Cc1cc(Nc2cc(N3CCN(C)CC3)nc(Sc3ccc(NC(=O)C4CC4)cc3)n2)n[nH]1` [Tozasertib] + Cc1cn(-c2cc(NC(=O)c3ccc(C)c(Nc4nccc(-c5cccnc5)n4)c3)cc(C(F)(F)F)c2)cn1 [nilotinib] (first compound 0.03 µM, partner dose 1 µM) had a cell count of 71.4%.

As for `Cc1cc(Nc2cc(N3CCN(C)CC3)nc(Sc3ccc(NC(=O)C4CC4)cc3)n2)n[nH]1` [Tozasertib] + O=C(O)C(=O)Nc1sc2c(c1C(=O)O)CCNC2 [TCS401] (first compound 0.03 µM, partner dose 8.33333 µM), the cell count worked out at 87.7%.

`Cc1cc(Nc2cc(N3CCN(C)CC3)nc(Sc3ccc(NC(=O)C4CC4)cc3)n2)n[nH]1` [Tozasertib] + O=S(=O)(c1ccccc1)N(CC(F)(F)F)c1ccc(C(O)(C(F)(F)F)C(F)(F)F)cc1 [T0901317] (first compound 0.03 µM, partner dose 7 µM) had a cell count of 66.2%.

Regarding `CC[C@]1(O)C[C@H]2CN(CCc3c([nH]c4ccccc34)[C@@](C(=O)OC)(c3cc4c(cc3OC)N(C=O)[C@H]3[C@@](O)(C(=O)OC)[C@H](OC(C)=O)[C@]5(CC)C=CCN6CC[C@]43[C@@H]65)C2)C1` [vincristine] + O=C(/C=C/c1cccnc1)NCCCCC1CCN(C(=O)c2ccccc2)CC1 [FK866] (first compound 0.0005 µM, partner dose 0.05 µM), the cell count worked out at 74.3%.

`Cc1cc(Nc2cc(N3CCN(C)CC3)nc(Sc3ccc(NC(=O)C4CC4)cc3)n2)n[nH]1` [Tozasertib] + OCCn1cc(-c2cnc3nnn(Cc4ccc5ncccc5c4)c3n2)cn1 [PF04217903] (first compound 0.03 µM, partner dose 5 µM): the cell count is 58%.

`CC[C@]1(O)C[C@H]2CN(CCc3c([nH]c4ccccc34)[C@@](C(=O)OC)(c3cc4c(cc3OC)N(C=O)[C@H]3[C@@](O)(C(=O)OC)[C@H](OC(C)=O)[C@]5(CC)C=CCN6CC[C@]43[C@@H]65)C2)C1` [vincristine] + C[C@@H]1CCN(C(=O)CC#N)C[C@@H]1N(C)c1ncnc2[nH]ccc12 [CP690550] (first compound 0.0005 µM, partner dose 5 µM) came in with a cell count of 87.4%.

In turn, `Cc1cc(Nc2cc(N3CCN(C)CC3)nc(Sc3ccc(NC(=O)C4CC4)cc3)n2)n[nH]1` [Tozasertib] + CCCCCCCCCCCCCCCCCCOP(=O)([O-])OC1CC[N+](C)(C)CC1 [Perifosine] (first compound 0.03 µM, partner dose 2 µM) yielded a cell count of 69.8%.

The molecule `CC[C@]1(O)C[C@H]2CN(CCc3c([nH]c4ccccc34)[C@@](C(=O)OC)(c3cc4c(cc3OC)N(C=O)[C@H]3[C@@](O)(C(=O)OC)[C@H](OC(C)=O)[C@]5(CC)C=CCN6CC[C@]43[C@@H]65)C2)C1` [vincristine] + CCCS(=O)(=O)Nc1ccc(F)c(C(=O)c2c[nH]c3ncc(Cl)cc23)c1F [PLX4720] (first compound 0.0005 µM, partner dose 0.4 µM) displayed a cell count of 91.1%.

`Cc1cc(Nc2cc(N3CCN(C)CC3)nc(Sc3ccc(NC(=O)C4CC4)cc3)n2)n[nH]1` [Tozasertib] + Cc1nc(Nc2ncc(C(=O)Nc3c(C)cccc3Cl)s2)cc(N2CCN(CCO)CC2)n1 [dasatanib] (first compound 0.03 µM, partner dose 0.02 µM) yielded a cell count of 69.5%.

The molecule `CC[C@]1(O)C[C@H]2CN(CCc3c([nH]c4ccccc34)[C@@](C(=O)OC)(c3cc4c(cc3OC)N(C=O)[C@H]3[C@@](O)(C(=O)OC)[C@H](OC(C)=O)[C@]5(CC)C=CCN6CC[C@]43[C@@H]65)C2)C1` [vincristine] + COc1ccc2c(c1)CCC1C2CCC2(C)C(NCCCCCCN3C(=O)C=CC3=O)CCC12 [U73122] (first compound 0.0005 µM, partner dose 2 µM) yielded a cell count of 124%.

Turning to `Cc1cc(Nc2cc(N3CCN(C)CC3)nc(Sc3ccc(NC(=O)C4CC4)cc3)n2)n[nH]1` [Tozasertib] + N#Cc1c(O)c2c(-c3ccc(-c4ccccc4O)cc3)csc2[nH]c1=O [A769662] (first compound 0.03 µM, partner dose 10 µM), the cell count was 72.1%.

The molecule `Cc1cc(Nc2cc(N3CCN(C)CC3)nc(Sc3ccc(NC(=O)C4CC4)cc3)n2)n[nH]1` [Tozasertib] + Cn1cncc1[C@@](N)(c1ccc(Cl)cc1)c1ccc2c(c1)c(-c1cccc(Cl)c1)cc(=O)n2C [tipifarnib] (first compound 0.03 µM, partner dose 0.05 µM) gave a cell count of 88.9%.

For the molecule `Cc1cc(Nc2cc(N3CCN(C)CC3)nc(Sc3ccc(NC(=O)C4CC4)cc3)n2)n[nH]1` [Tozasertib] + C#Cc1cccc(Nc2ncnc3cc(OCCOC)c(OCCOC)cc23)c1 [erlotinib] (first compound 0.03 µM, partner dose 4 µM), the cell count is 43.3%.

`Cc1cc(Nc2cc(N3CCN(C)CC3)nc(Sc3ccc(NC(=O)C4CC4)cc3)n2)n[nH]1` [Tozasertib] + COc1cc(N2CCC(N3CCN(C)CC3)CC2)ccc1Nc1ncc(Cl)c(Nc2ccccc2S(=O)(=O)C(C)C)n1 [NVP-TAE684] (first compound 0.03 µM, partner dose 0.4 µM): the cell count turned out to be 81.1%.

Regarding `CC[C@]1(O)C[C@H]2CN(CCc3c([nH]c4ccccc34)[C@@](C(=O)OC)(c3cc4c(cc3OC)N(C=O)[C@H]3[C@@](O)(C(=O)OC)[C@H](OC(C)=O)[C@]5(CC)C=CCN6CC[C@]43[C@@H]65)C2)C1` [vincristine] + CCc1ccc(CCOc2ccc(CC3SC(=O)NC3=O)cc2)nc1 [pioglitazone] (first compound 0.0005 µM, partner dose 10 µM), the cell count was determined as 53.5%.

For the molecule `Cc1cc(Nc2cc(N3CCN(C)CC3)nc(Sc3ccc(NC(=O)C4CC4)cc3)n2)n[nH]1` [Tozasertib] + COc1cc(Nc2ncc(F)c(Nc3ccc4c(n3)NC(=O)C(C)(C)O4)n2)cc(OC)c1OC [Tamatinib] (first compound 0.03 µM, partner dose 2 µM), the cell count stood at 71%.

The molecule `Cc1cc(Nc2cc(N3CCN(C)CC3)nc(Sc3ccc(NC(=O)C4CC4)cc3)n2)n[nH]1` [Tozasertib] + C[C@@H](Oc1cc(-c2cnn(C3CCNCC3)c2)cnc1N)c1c(Cl)ccc(F)c1Cl [Crizotinib] (first compound 0.03 µM, partner dose 1 µM) returned a cell count of 64.3%.

Molecule `CC[C@]1(O)C[C@H]2CN(CCc3c([nH]c4ccccc34)[C@@](C(=O)OC)(c3cc4c(cc3OC)N(C=O)[C@H]3[C@@](O)(C(=O)OC)[C@H](OC(C)=O)[C@]5(CC)C=CCN6CC[C@]43[C@@H]65)C2)C1` [vincristine] + CN(NC(=O)CC(=O)NN(C)C(=S)c1ccccc1)C(=S)c1ccccc1 [STA4783] (first compound 0.0005 µM, partner dose 0.03 µM) came in with a cell count of 21.4%.

Take `CC[C@]1(O)C[C@H]2CN(CCc3c([nH]c4ccccc34)[C@@](C(=O)OC)(c3cc4c(cc3OC)N(C=O)[C@H]3[C@@](O)(C(=O)OC)[C@H](OC(C)=O)[C@]5(CC)C=CCN6CC[C@]43[C@@H]65)C2)C1` [vincristine] + NC1(c2ccc(-c3nc4ccn5c(=O)[nH]nc5c4cc3-c3ccccc3)cc2)CCC1 [MK2206] (first compound 0.0005 µM, partner dose 2 µM): the cell count was 89.7%.

Molecule `CC[C@]1(O)C[C@H]2CN(CCc3c([nH]c4ccccc34)[C@@](C(=O)OC)(c3cc4c(cc3OC)N(C=O)[C@H]3[C@@](O)(C(=O)OC)[C@H](OC(C)=O)[C@]5(CC)C=CCN6CC[C@]43[C@@H]65)C2)C1` [vincristine] + O=C(O)c1ccc(-c2c[nH]c3ncc(-c4ccccc4)cc23)cc1C1CCCC1 [GSK650394] (first compound 0.0005 µM, partner dose 0.8 µM) registered a cell count of 94%.

As for `CC[C@]1(O)C[C@H]2CN(CCc3c([nH]c4ccccc34)[C@@](C(=O)OC)(c3cc4c(cc3OC)N(C=O)[C@H]3[C@@](O)(C(=O)OC)[C@H](OC(C)=O)[C@]5(CC)C=CCN6CC[C@]43[C@@H]65)C2)C1` [vincristine] + COc1ccc(C2=N[C@@H](c3ccc(Cl)cc3)[C@@H](c3ccc(Cl)cc3)N2C(=O)N2CCNC(=O)C2)c(OC(C)C)c1 [Nutlin-3] (first compound 0.0005 µM, partner dose 0.5 µM), the cell count came out at 77.9%.

Turning to `N#CC[C@H](C1CCCC1)n1cc(-c2ncnc3[nH]ccc23)cn1` [ruxolitinib] + CC(=O)c1c(C)c2cnc(Nc3ccc(N4CCNCC4)cn3)nc2n(C2CCCC2)c1=O [palbociclib] (first compound 5 µM, partner dose 0.2 µM), the cell count turned out to be 62.4%.
